# Results taken from the supplement of paper PMC7826260.
# Some of the results follow. One pool of 16,384 single-stranded DNAs met each Rep nickase domain in vitro (3 µM enzyme, 1 h, 37 °C); shown is the middle of each 90-letter strand. The score is log2 (uncut reads / reads without enzyme); the lower, the more was cut; hits are not called. Shares of all reads are compared; where an enzyme cuts many sequences, the uncut ones exceed 0.
# Columns and labels:
# Assay in all cases: uncleaved DNA left, log2 of reads against the no-enzyme library (log2 ratio); higher = less cleavage (more negative = more Rep cleavage of the k-mer); sequences stand for … in CTCGTCCG…ACCGGAGA
# [1] = test system: T1, Rep nickase domain of Muscovy duck circovirus
# T1 sequence (residues 1-111 of Rep, tag left off): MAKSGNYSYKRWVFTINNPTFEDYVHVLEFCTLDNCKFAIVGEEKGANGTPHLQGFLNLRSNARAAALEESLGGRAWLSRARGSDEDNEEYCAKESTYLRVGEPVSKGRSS
# Description: (§1)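 A pool of 90-nt single-stranded DNAs with seven random bases just before the constant AC of the nick site (name = the seven bases) was cut by 3 µM recombinant His6-SUMO-tagged Rep nickase domain (300 nM DNA, 50 mM HEPES pH 8.0, 50 mM NaCl, 1 mM MnCl2, 1 h, 37 °C, three replicates). Uncut DNA was amplified and sequenced.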
# [2] = test system: T2, Rep nickase domain of banana bunchy top virus
# T2 sequence (residues 1-94 of Rep, tag left off): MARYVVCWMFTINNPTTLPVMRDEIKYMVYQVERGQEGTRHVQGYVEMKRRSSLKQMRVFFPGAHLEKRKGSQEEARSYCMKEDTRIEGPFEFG
# Description: as §1
# [3] = test system: T3, Rep nickase domain of cabbage leaf curl virus
# T3 sequence (residues 1-116 of Rep, tag left off): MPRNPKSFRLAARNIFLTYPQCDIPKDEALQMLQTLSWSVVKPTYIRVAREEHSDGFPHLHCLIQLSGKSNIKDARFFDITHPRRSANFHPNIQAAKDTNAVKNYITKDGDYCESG
# Description: as §1
# [4] = test system: T4, Rep nickase domain of chickpea chlorotic dwarf virus
# T4 sequence (residues 1-124 of Rep, tag left off): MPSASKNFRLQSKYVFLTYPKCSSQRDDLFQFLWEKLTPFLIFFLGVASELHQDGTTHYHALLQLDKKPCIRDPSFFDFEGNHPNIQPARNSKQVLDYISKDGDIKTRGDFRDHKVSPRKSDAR
# Description: as §1
# [5] = test system: T5, Rep nickase domain of faba bean necrotic yellows virus
# T5 sequence (residues 1-98 of Rep, tag left off): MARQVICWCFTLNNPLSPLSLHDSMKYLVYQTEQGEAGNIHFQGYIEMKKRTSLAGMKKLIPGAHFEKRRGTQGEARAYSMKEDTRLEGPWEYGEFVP
# Description: as §1
# [6] = test system: T6, Rep nickase domain of maize striate mosaic virus
# T6 sequence (residues 1-117 of Rep, tag left off): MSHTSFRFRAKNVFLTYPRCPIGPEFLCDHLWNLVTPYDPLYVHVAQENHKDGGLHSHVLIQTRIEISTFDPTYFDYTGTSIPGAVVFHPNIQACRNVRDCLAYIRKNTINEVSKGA
# Description: as §1
# [7] = test system: T7, Rep nickase domain of porcine circovirus 2
# T7 sequence (residues 2-116 of Rep, tag left off): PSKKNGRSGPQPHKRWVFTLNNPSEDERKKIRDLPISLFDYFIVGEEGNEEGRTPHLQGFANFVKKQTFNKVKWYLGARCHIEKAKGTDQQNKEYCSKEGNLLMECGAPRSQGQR
# Description: as §1
# [8] = test system: T8, Rep nickase domain of tomato yellow leaf curl virus
# T8 sequence (residues 1-136 of Rep, tag left off): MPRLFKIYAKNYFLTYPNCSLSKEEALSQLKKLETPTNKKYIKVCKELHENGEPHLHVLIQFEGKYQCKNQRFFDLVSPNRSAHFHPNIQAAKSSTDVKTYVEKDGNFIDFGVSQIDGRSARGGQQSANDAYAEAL
# Description: as §1
# [9] = test system: T9, Rep nickase domain of wheat dwarf virus
# T9 sequence (residues 1-137 of Rep, tag left off): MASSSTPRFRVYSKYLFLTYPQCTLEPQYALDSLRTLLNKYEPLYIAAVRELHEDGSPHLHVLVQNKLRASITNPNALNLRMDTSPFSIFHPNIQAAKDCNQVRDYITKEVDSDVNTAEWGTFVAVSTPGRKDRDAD
# Description: as §1
Sequence,uncleaved DNA left (log2) [1],uncleaved DNA left (log2) [2],uncleaved DNA left (log2) [3],uncleaved DNA left (log2) [4],uncleaved DNA left (log2) [5],uncleaved DNA left (log2) [6],uncleaved DNA left (log2) [7],uncleaved DNA left (log2) [8],uncleaved DNA left (log2) [9]
ACACAGG,0.141,0.239,-0.47,-0.218,0.17,-1.09,0.256,0.18,0.149
TCACAAA,0.167,0.0853,0.205,-0.084,0.0845,-0.418,0.197,0.114,0.103
GATATGG,0.0641,0.0246,0.331,0.78,-0.0115,0.388,0.212,0.0223,0.0979
AGTGAGT,-0.0868,-0.00978,-0.00809,0.25,-0.17,0.776,-1.04,-0.0652,-0.0357
CCCAAGC,-0.105,0.126,0.16,0.632,0.166,0.0762,0.166,-0.0959,0.127
AAGTCCT,-0.67,-1.49,-0.147,-2.57,-0.906,0.0615,-3.76,-0.0896,-0.154
TCAGTCG,-0.02,-0.0663,-0.227,0.612,0.00099,0.668,0.0324,0.0101,-0.0637
TGTCAAT,0.212,0.197,0.598,0.937,0.045,1.41,-0.23,0.183,0.247
TGAAATC,0.0462,0.184,0.344,0.74,0.0204,0.519,0.128,0.104,0.181
CATGTTT,0.0511,-1.23,-0.351,-2.6,0.0572,-0.594,-1.1,0.153,-0.106
AGCATGA,-0.0833,-0.0809,-0.0777,0.532,-0.0588,0.878,-0.0403,-0.0888,-0.00233
CAGTCGA,0.15,0.0157,-0.604,-0.751,0.0642,-1.08,-0.791,0.105,0.0141
AGTCGGA,-0.0487,-0.0733,0.0929,0.319,-0.0829,-0.111,-0.246,0.00136,-0.0462
TGGAGAA,-0.0655,-0.101,0.454,0.999,-0.126,1.03,0.0746,-0.0704,0.0458
GCAGTTG,-0.159,-0.12,-0.445,-0.194,-0.0351,-0.8,-0.147,-0.0923,-0.134
CAGGGCT,-0.0397,-0.0627,-0.0359,0.145,0.1,0.093,-0.0826,-0.045,-0.0195
CTCACAA,0.125,0.067,0.0952,-0.305,0.184,-0.427,0.112,0.0295,0.212
TAGTGTA,-0.429,-0.855,-0.109,-1.49,-0.711,0.365,-2.9,-0.00292,-0.0268
TTCTTCC,-0.00113,-0.0791,0.166,-0.195,0.0604,-0.279,-0.00724,0.0777,0.0212
GGGTTGA,0.0311,-0.0674,0.695,1.78,-0.103,2.14,0.0476,-0.0468,0.00594

Sequence,uncleaved DNA left (log2) [1],uncleaved DNA left (log2) [2],uncleaved DNA left (log2) [3],uncleaved DNA left (log2) [4],uncleaved DNA left (log2) [5],uncleaved DNA left (log2) [6],uncleaved DNA left (log2) [7],uncleaved DNA left (log2) [8],uncleaved DNA left (log2) [9]
ACGAACC,-0.00184,0.104,-0.0439,-0.212,0.0686,-0.175,-0.0836,-0.0925,-0.0158
GAGACTT,-0.0693,0.0227,0.493,1.73,-0.147,2.02,-2.18,-0.145,0.0571
GACAAAG,0.151,0.016,-0.501,-0.429,0.0295,-0.922,0.0508,0.117,0.0235
AGGGAAC,0.0169,0.2,0.436,1.44,0.0237,1.09,0.156,0.0804,0.0471
GTTACAA,0.0257,0.0874,0.252,0.91,0.0336,1.83,0.107,0.115,0.172
ATTTGTT,-3.4,-3.45,-1.18,-2.79,-0.454,-1.4,-3.75,-0.195,-1.11
TGGCTGC,0.0211,-0.013,0.172,0.729,-0.0564,0.994,0.0737,-0.0801,0.0392
ATACCAT,0.0261,-0.0434,0.0777,-0.587,0.00545,-0.0919,-0.135,-0.0236,0.0358
GCAGTTA,0.0648,-0.112,-0.0768,-0.466,-0.0258,-0.0665,-0.0994,0.0856,-0.0288
TCACCTA,-0.103,-0.102,-0.046,-1.15,-0.0847,-0.57,-0.419,-0.124,-0.0777
ACTCCGA,0.0065,0.0332,-0.223,-0.0099,0.0248,-0.739,0.0973,-0.074,-0.103
AGACGAT,0.0231,0.101,0.387,0.827,-0.043,1.38,-0.0675,-0.00877,0.0528
GATCATG,0.0869,0.0197,-0.00433,0.269,-0.0507,-0.421,0.0901,-0.12,-0.0549
GTTTCGC,0.0421,-0.018,0.0974,0.353,0.0245,0.157,0.12,0.0358,0.0523
GCACTCA,0.0735,0.134,0.0373,-0.35,0.045,0.0806,0.0785,-0.0124,0.114
TCATCAA,-0.0247,0.103,0.228,0.351,-0.12,-0.106,0.0217,0.0905,0.121
CATGGAC,-0.0398,-0.0376,0.313,1.12,-0.00491,0.953,0.0894,-0.0353,-0.0151
CCTTTTC,-0.205,-0.191,-0.169,-0.347,-0.0253,-0.886,-0.0759,-0.13,-0.131
TTGGGCA,0.167,0.169,0.738,1.33,0.11,1.33,0.179,0.138,0.139
GGCCATG,0.0822,0.0624,0.422,1.16,0.0191,1.49,0.127,0.049,0.167
